This note sets out measurements from PubChem BioAssay AID1347073 (National Center for Advancing Translational Sciences (NCATS), 2019).

The campaign covered roughly 45,000 compounds. About 200 (0.44%) were called active. Roughly 7% stayed inconclusive and do not appear here. The call rests on the fitted dose curve; in most records, active means well fitted activation curve with a large enough effect; inconclusive means small, poorly fitted or top-dose-only effect; inactive means no such curve, though single readings can be large or run the other way. The list shows a part of the results.

The test in a line: qHTS of TDP-43 Inhibitors: NCGC Sytravon Library Screen. Further: 0% is about no effect; nearly all actives have a fitted effect of over 55% in size. The conditions noted are these: yeast TDP-43 toxicity rescue, BacTiter-Glo growth, 24 h; series mostly up to 46.1 µM; growth rescue (activation): at the top concentration. In a few lines: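 TDP-43-expressing yeast, pregrown in raffinose, seeded at OD600 0.02 in galactose medium with compound for 24 hr at 30 deg C. Growth read by BacTiter-Glo luminescence, so rescue of toxicity appears as activation.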
(In general: In qHTS, concentration-response curves come from the screen itself.)
As to `CC(=O)c1cccc(NC(=O)/C(=C\c2cccnc2)NC(=O)c2ccco2)c1`, the “growth rescue (activation)” value was inactive: 1.03%.
As for `O=C(CSc1nnc(-c2ccccc2Cl)o1)N1CCCC1`, the “growth rescue (activation)” value is inactive: 5.53%.
Consider `COc1ccc(C2c3ccc4ccccc4c3Oc3ncn(CCN(C)C)c(=N)c32)cc1` (centres undefined), for which the “growth rescue (activation)” value was inactive: 3.31%.
`O=C(COC(=O)CCc1ccc(S(=O)(=O)N2CCOCC2)cc1)Nc1ccccc1OC(F)F`: the “growth rescue (activation)” value was inactive: 13.3%.
`O=C(Nc1cc(S(=O)(=O)Nc2ccc(Cl)cc2)ccc1N1CCCCC1)c1ccc(F)cc1Cl`: the “growth rescue (activation)” value was inactive: 10.1%.
As to `Cc1ccc(CN2CC(C(=O)Nc3ccc(F)c([N+](=O)[O-])c3)CC2=O)cc1` (centres undefined), the “growth rescue (activation)” value is inactive: -13.8%.
In the case of `CCCC(C(=O)NC1CCCC1)N(Cc1ccc(OC)cc1)C(=O)c1snc(C(N)=O)c1N` (centres undefined) it was inactive: 8.08%.
`NC(=O)CCN1CCN(Cc2nc(C(c3ccccc3)c3ccccc3)no2)CC1`: the “growth rescue (activation)” value is inactive: -9.75%.
In the case of `CNc1nc(Cl)nc(NC(C)(C)C)n1`, the “growth rescue (activation)” value is inactive: 5.94%.
Turning to `COc1ccccc1-c1cc(C(=O)N2CCOCC2)no1`, the “growth rescue (activation)” value was inactive: 15.1%.
Take `Cc1cccc(C)c1NC(=O)N1CCC(C(=O)c2ccc(F)cc2)CC1`: the “growth rescue (activation)” value is inactive: 33.9%.
The figure for `COC(=O)c1ccc(C(=O)Nc2ccc(N)cc2N)cc1` is inactive: 8.19%.
Turning to `CC(C)c1ccc(NC(=O)CNC(=O)Cn2ccc3ccccc3c2=O)cc1`, the “growth rescue (activation)” value was inactive: 6.31%.
In the case of `O=[N+]([O-])c1ccccc1S(=O)(=O)N1CCN(Cc2cc3c(cc2O)OCO3)CC1`, the “growth rescue (activation)” value was inactive: 8.34%.
On to `Cc1ccc(NC(=O)Cn2nnc3ccccc32)cc1`, for which the “growth rescue (activation)” value is inactive: 8.34%.
For `COc1ccc(CN(Cc2ccc(C(=O)O)cc2)C(=S)Nc2cc(C)cc(C)c2)cc1OC`, the “growth rescue (activation)” value was inactive: 4.23%.
As to `CC1CCN(c2ccccc2NC(=O)c2ccc(C#N)cc2F)CC1`, the “growth rescue (activation)” value was inactive: -0.863%.
Take `O=C(COc1ccc(F)cc1)c1ccc2c(c1)CCCC2`: the “growth rescue (activation)” value was inactive: 20.1%.
For the compound `Cc1ccc(S(=O)(=O)N2CCOCC2)cc1C(=O)NCCc1ccc(Cl)cc1`, the “growth rescue (activation)” value is inactive: -0.373%.
For the compound `Cc1onc(-c2c(Cl)cccc2Cl)c1C(=O)NC1C(=O)N2C1SC(C)(C)C2C(=O)O` (centres undefined), the “growth rescue (activation)” value is inactive: 4.36%.
`COc1ccc(N(CC(=O)Nc2cccc(C)c2C)S(=O)(=O)c2c(C)[nH]c(=O)[nH]c2=O)cc1`: the “growth rescue (activation)” value was inactive: 30.9%.
Turning to `COc1ccc(NC(=O)CCNC(=O)c2ccco2)c(OC)c1`, the “growth rescue (activation)” value is inactive: -8.03%.
Take `CCCc1nc2sc3c(c2c(=O)n1N)CCC3`: the “growth rescue (activation)” value was inactive: 17.3%.
As to `Cc1cc(C)cc(NC(=O)COC(=O)COc2ccc(N(C)S(=O)(=O)c3cccs3)cc2)c1`, the “growth rescue (activation)” value was inactive: 13.6%.
Turning to `Cn1c(C(=O)N2CCCC(C(=O)c3ccc(C(F)(F)F)cc3)C2)cc(=O)n(C)c1=O` (centres undefined), the “growth rescue (activation)” value is inactive: 11.8%.
In the case of `C=CC[N+]1(CC#Cc2ccccc2)CCCC1`, the “growth rescue (activation)” value was inactive: 1.2%.
For `Fc1cccc(NC(=S)N2CCCC2)c1`, the “growth rescue (activation)” value was inactive: -1.99%.
In the case of `O=C(NC(=S)NC1CCSC1=O)c1cccs1` (centres undefined) it was inactive: 3.35%; in that of `Cc1sc2nc(CSCC(=O)Nc3c(Cl)cccc3Cl)[nH]c(=O)c2c1C`, inactive: 12.1%.
